# Measured values taken from PubChem BioAssay (NCATS).
# Inconclusive results, whose numbers are uncertain, are shown with a selection of clear calls. For some assays here: A potency beside an inconclusive call is a rough fit, not a confirmed value. Active and inactive are the calls of the source. Unless noted, the call rests on the fitted dose curve; in most records, active means well fitted curve in the direction sought with a large enough effect; inconclusive means small, poorly fitted or top-dose-only effect, or another doubt; inactive means no such curve, though single readings can be large; an effect the other way counts as inactive or inconclusive.
# How the values were obtained:
# [1] = qHTS to identify inhibitors of the type 1 interferon - major histocompatibility complex class I in skeletal muscle: primary screen against the NCATS Mechanism Interrogation Plate v5.0 (MIPE) Libary (AID 1347411); conditions: iHSKM cells + IFN-b, HiBiT-tagged MHC-I luminescence, 24 h; activity change, negative = inhibition: at 45.8 µM (top of the series); further: nearly all actives have a fitted effect of over 65% in size; further: potency means the concentration at half of the fitted maximal effect
# How it was run: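 HLA-B HiBit myoblasts, dexamethasone-free medium + 4 ng/ml IFN-b, 24 h compound, 11-pt 1:3 from 46 uM final. Readout: Nano-Glo HiBiT lytic luminescence after 10 min lysis, RT.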
# [2] = qHTS of pediatric cancer cell lines to identify multiple opportunities for drug repurposing: Primary screen for DAOY cells (AID 1347090); conditions: DAOY medulloblastoma viability, CellTiter-Glo luminescence, 48 h; activity change, negative = cytotoxic: at 46 µM (top of the series); further: potency means the concentration at half of the fitted maximal effect; nearly all actives have a fitted effect of over 55% in size
# How it was run: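 Eight- or eleven-point concentration series, 48 h treatment at 37 degrees C in growth media; readout CellTiter-Glo luminescence. Potency and efficacy were taken from the concentration-response curves.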
# [3] = qHTS of pediatric cancer cell lines to identify multiple opportunities for drug repurposing: Primary screen for BT-37 cells (AID 1347094); further: potency means the concentration at half of the fitted maximal effect
# How it was run: (§1)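 Quantitative HTS format: each compound titrated (MIPE 11 points from 0.78 nM, NPC 8 points from 0.59 nM) onto cells plated 5 hours earlier. After 48 h at 37 degrees C, CellTiter-Glo luminescence was recorded.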
# [4] = qHTS of pediatric cancer cell lines to identify multiple opportunities for drug repurposing: Primary screen for BT-12 cells (AID 1347101); further: potency means the concentration at half of the fitted maximal effect; nearly all actives have a fitted effect of over 25% in size
# How it was run: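 Cells (500-1,000/well) rested 5 h, then received compounds for 48 h; metabolically active cells were measured by CellTiter-Glo luminescence. Final concentrations spanned up to 46 µM (MIPE, 11-point) or 0.59 nM-46 µM (NPC, 8-point) in primary screens, 11-point in follow-ups.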
# [5] = qHTS of pediatric cancer cell lines to identify multiple opportunities for drug repurposing: Primary screen for Rh18 cells (AID 1347102); further: potency means the concentration at half of the fitted maximal effect; nearly all actives have a fitted effect of over 65% in size
# How it was run: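 Cells (500-1,000/well) in growth media were settled 5 h at 37 degrees C, then given compounds for 48 h. Viability was read as CellTiter-Glo luminescence. Primary runs used MIPE at 11 points (0.78 nM-46 µM) and NPC at 8 points (0.59 nM-46 µM); follow-ups used 11 points.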
# [6] = qHTS of pediatric cancer cell lines to identify multiple opportunities for drug repurposing: Primary screen for RD cells (AID 1347104); conditions: RD rhabdomyosarcoma viability, CellTiter-Glo luminescence, 48 h; activity change, negative = cytotoxic: at 46 µM (top of the series); further: potency means the concentration at half of the fitted maximal effect; nearly all actives have a fitted effect of over 55% in size
# How it was run: as §1
# [7] = qHTS of pediatric cancer cell lines to identify multiple opportunities for drug repurposing: Primary screen for Rh41 cells (AID 1347108); further: potency means the concentration at half of the fitted maximal effect; nearly all actives have a fitted effect of over 70% in size
# How it was run: as §1
# [8] = Quantitative High-Throughput drug screen in 47 multiple myeloma cell lines against the NCATS MIPE library collection: Karpas417_ECACC cell viability assay (AID 1918961); conditions: Karpas417 myeloma viability, CellTiter-Glo ATP luminescence, 48 h; series mostly up to 45.8 µM; further: potency means the concentration at half of the fitted maximal effect
# How it was run: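 Relative luminescence from CellTiter-Glo served as the viability signal, referenced to DMSO-treated (100%) and cell-free medium (0%) controls. Treatment lasted 48 hours at 37C with 500 cells per well.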
# [9] = Quantitative High-Throughput drug screen in 47 multiple myeloma cell lines against the NCATS MIPE library collection: JIM1_ECACC cell viability assay (AID 1918964; further: potency means the concentration at half of the fitted maximal effect)
# How it was run: (§2)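 Luminescent ATP measurement with CellTiter-Glo gives viability, scaled between DMSO-only wells (100%) and media-only wells (0%). Cells, 500 per well, faced library compounds for 48 hours at 37C.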
# [10] = Quantitative High-Throughput drug screen in 47 multiple myeloma cell lines against the NCATS MIPE library collection: KMS21BM_JCRB cell viability assay (AID 1918974); conditions: ATP luminescence, 48 h; viability: at 45.8 µM (top of the series); further: potency means the concentration at half of the fitted maximal effect
# How it was run: as §2
# [11] = Quantitative High-Throughput drug screen in 47 multiple myeloma cell lines against the NCATS MIPE library collection: LP1_DSMZ cell viability assay (AID 1918982); further: potency means the concentration at half of the fitted maximal effect; nearly all actives have a fitted effect of over 35% in size
# How it was run: (§3)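 Readout: median RLU from CellTiter-Glo after 5 min at room temperature. Preceding step was 48 h drug treatment of 500 cells/well at 37 °C, 5% CO2, with DMSO-only and media-only control wells.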
# [12] = Quantitative High-Throughput drug screen in 47 multiple myeloma cell lines against the NCATS MIPE library collection: L363_DSMZ cell viability assay (AID 1918984); conditions: L363 myeloma viability, CellTiter-Glo ATP luminescence, 48 h; series mostly up to 45.8 µM; further: potency means the concentration at half of the fitted maximal effect; nearly all actives have a fitted effect of over 40% in size
# How it was run: as §3
# [13] = qHTS for identification of novel therapeutic agents for treatment of microphthalmiaassociated transcription factor (MiT) renal cell carcinoma (RCC) (AID 1963991; calls by dose curve; further: potency means the concentration at half of the fitted maximal effect); conditions: TFE3-RCC UOK109 viability, CellTiter-Glo, 48 h; active = Z-AUC below -0.8 in all three lines
# How it was run: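 UOK109/UOK124/UOK145 (TFE3 fusions, three partners); 500 cells/well; MIPE v4.0, 1912 cpds, 11 conc.; 48 h, 37 C; CellTiter-Glo, 15 min RT; lum. Norm.: DMSO 100%, empty 0%.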
# [14] = qHTS assay to identify inhibitors of the type 1 interferon - major histocompatibility complex class I in skeletal muscle: Counter screen cell viability and HiBit confirmation (AID 1347412); conditions: iHSKM muscle cells + IFN-b, HiBiT or CellTiter-Glo, 24 h; further: potency means the concentration at half of the fitted maximal effect; nearly all actives have a fitted effect of over 60% in size
# How it was run: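 Myoblasts (C25cl48, HLA-B HiBiT) seeded in medium without dexamethasone, IFN-b 4 ng/ml added except unstimulated columns; 1 hr later compounds pinned (12-pt 1:3, top 46 uM final). Incubated 24 hrs, lysed 10 min, luminescence measured.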
# [15] = tested on: UISO; assay: qHTS assay to identify novel small-molecules to repurpose for Merkel cell carcinoma treatment (AID 1296009); conditions: MCC and control cell lines, CellTiter-Glo viability, 72 h; series mostly up to 46 µM; further: potency means the concentration at half of the fitted maximal effect; nearly all actives have a fitted effect of over 60% in size
# How it was run: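 Luminescence from CellTiter-Glo, read 10 min after addition at room temperature, reported viability following a 72 hr, 37 degree celsius treatment with NPC or MIPE compounds in titration; values normalized to plate controls.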
# [16] = target: Cytochrome P450 2D6 (Homo sapiens) (UniProt P10635); assay: Cytochrome P450 family 2 subfamily D member 6 (CYP2D6) small molecule antagonists: luciferase biochemical (cell-free) qHTS assay (AID 1645840; active means well fitted curve in the direction sought with a large enough effect in the repeat runs; inconclusive means weak or mixed curves; inactive means no such curve, though single readings can be large; an effect the other way counts as inactive or inconclusive; further: potency means the concentration at half of the fitted maximal effect; nearly all actives have a fitted effect of over 55% in size)
# How it was run: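 P450-Glo CYP2D6 system: proluciferin substrate converted by enzyme to luciferin, read by luminescence proportional to activity. Enzyme-substrate mix with compound 10 min at room temperature, then NADPH regeneration 1 h before detection reagent.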
# [17] = tested on: Zika virus NS2B-NS3 protease (linked construct); assay: Primary screen NINDS Rhodamine qHTS for Zika virus inhibitors (AID 1347160); conditions: activity change, negative = inhibition: at 57.1 µM (top of the series) unless noted; further: nearly all actives have a fitted effect of over 55% in size
# How it was run: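 Enzyme (25 nM, linked NS2B-NS3) was preincubated 15 min with compound in 10 mM Tris-HCl pH 8.0, 0.01% Tween 20. Rhodamine110 substrate (1.5 microM) was then added and fluorescence read at start and after 15 min.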
# [18] = Primary fluorescence-based thiol-reactive (MSTI) qHTS assay for identification of artifact compounds. (AID 1845221);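 further: potency means the concentration at half of the fitted maximal effect; thiol-reactive compounds lower the probe fluorescence signal; nearly all actives have a fitted effect of over 65% in size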
# How it was run: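 Reactivity toward the thiol probe MSTI (4 uM) is scored by fluorescence at Ex/Em 525/598 nm after 1 h at room temperature. Acetyl-MSTI and MSTI define the activity scale.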
# [19] = qHTS of pediatric cancer cell lines to identify multiple opportunities for drug repurposing: Primary screen for NB1643 cells (AID 1347099); further: potency means the concentration at half of the fitted maximal effect; nearly all actives have a fitted effect of over 50% in size
# How it was run: as §1
# Tags describe the fitted curve by direction and shape.
# Chain of UniProt P10635 (P10635 whole entry, looked up): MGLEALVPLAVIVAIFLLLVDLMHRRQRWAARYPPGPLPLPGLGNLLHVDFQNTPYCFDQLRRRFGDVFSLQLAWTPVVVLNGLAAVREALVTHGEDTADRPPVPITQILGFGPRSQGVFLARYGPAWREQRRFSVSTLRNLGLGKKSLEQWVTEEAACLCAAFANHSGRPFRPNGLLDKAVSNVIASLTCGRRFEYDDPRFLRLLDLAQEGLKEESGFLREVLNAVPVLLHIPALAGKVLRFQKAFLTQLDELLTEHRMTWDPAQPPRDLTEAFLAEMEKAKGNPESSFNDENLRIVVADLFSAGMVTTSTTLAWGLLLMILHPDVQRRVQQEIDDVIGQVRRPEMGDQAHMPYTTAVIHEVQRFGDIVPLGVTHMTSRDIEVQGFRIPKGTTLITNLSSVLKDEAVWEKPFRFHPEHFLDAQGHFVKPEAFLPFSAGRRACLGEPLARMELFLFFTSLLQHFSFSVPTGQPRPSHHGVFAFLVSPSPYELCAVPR
smiles,measurement,setting,value
C[C@H]1[C@H](O)O[C@@H]2O[C@@]3(C)CC[C@H]4[C@H](C)CC[C@@H]1[C@@]24OO3,Potency,[1],inactive
COc1cc(C(=O)N2CCC(N3CCN(C)CC3)CC2)ccc1Nc1ncc2c(n1)N(C)c1ccccc1C(=O)N2C,Potency,[2],"inconclusive: 18.7 µM [cytotoxic, partial curve]"
same,Potency,[3],active: 15.3 µM
same,Potency,[4],"inconclusive: 7.69 µM [cytotoxic, partial curve]"
same,Potency,[5],active: 11.8 µM
same,Potency,[6],active: 14.8 µM
same,Potency,[7],active: 9.35 µM
same,Potency,[8],active: 2.09 µM
same,Potency,[9],"inconclusive: 4.69 µM [cytotoxic, partial curve, poor fit]"
same,Potency,[10],"inconclusive: 37.2 µM [rising, partial curve, poor fit]"
same,Potency,[11],"inconclusive: 3.32 µM [cytotoxic, full curve]"
same,Potency,[12],active: 4.69 µM
same,Potency,[13],"inconclusive: 3.32 µM [falling, full curve]"
same,Potency,[14]; HiBiT,"inconclusive: 4.43 µM [inhibitor, full curve]"
same,Potency,[15],"inconclusive: 8.33 µM [inhibitor, full curve]"
C[C@H](CN(C)C)Oc1nc(Nc2cc3cccc(Cl)c3cn2)cnc1C#N,Potency,[16],active: 0.674 µM
CCn1cc(-c2ccnc3[nH]c(-c4cccc(CN(C)C)c4)cc23)c(-c2ccc(NC(=O)N(C)C)cc2)n1,Potency,[2],active: 5.9 µM
same,Potency,[3],active: 19.3 µM
same,Potency,[4],"inconclusive: 13.7 µM [cytotoxic, partial curve]"
same,Potency,[7],active: 5.9 µM
same,Potency,[1],"inconclusive: 18.6 µM [inhibitor, partial curve]"
same,Potency,[8],active: 1.87 µM
same,Potency,[9],active: 5.26 µM
same,Potency,[10],active: 0.662 µM
same,Potency,[11],"inconclusive: 9.35 µM [cytotoxic, partial curve]"
same,Potency,[12],active: 2.09 µM
same,Potency,[13],"inconclusive: 4.18 µM [falling, full curve]"
COc1ccc(Oc2c(Cl)cnn(-c3cc(C)cc(C)c3)c2=O)cc1,Potency,[17],inactive
CC1CCCC[C@H]2C(=O)C=C[C@H](O)[C@@H]2CC(=O)O1 (stereo not given in full),Potency,[18],"inconclusive: 26.7 µM [inhibitor, partial curve]"
O=C(/C=C/c1cccc(S(=O)(=O)Nc2ccccc2)c1)NO,Potency,[1],active: 2.34 µM
same,Potency,[16],active: 21.3 µM
same,Potency,[18],"inconclusive: 0.653 µM [inhibitor, full curve]"
Cc1cc(CN2CCN(c3c(Br)cnc4nc(-c5ccc(N6CCN(C)CC6)cc5)[nH]c34)CC2)no1,Potency,[2],"inconclusive: 29.6 µM [cytotoxic, single point]"
same,Potency,[3],"inconclusive: 27.3 µM [cytotoxic, partial curve]"
same,Potency,[19],active: 16.6 µM
same,Potency,[4],"inconclusive: 21.7 µM [cytotoxic, partial curve]"
same,Potency,[5],active: 20.9 µM
same,Potency,[7],active: 5.9 µM
same,Potency,[1],active: 6.58 µM
same,Potency,[16],"inconclusive: 30.1 µM [inhibitor, partial curve, poor fit]"
same,Potency,[18],"inconclusive: 10.6 µM [inhibitor, partial curve]"
same,Potency,[8],inactive
same,Potency,[9],"inconclusive: 0.296 µM [rising, full curve, poor fit]"
same,Potency,[10],"inconclusive: 8.33 µM [rising, full curve]"
same,Potency,[12],"inconclusive: 0.0418 µM [cytotoxic, full curve, poor fit]"
same,Potency,[13],"inconclusive: 7.43 µM [falling, partial curve]"
same,Potency,[14]; Viability,active: 11.1 µM
same,Potency,[15],"inconclusive: 11.8 µM [inhibitor, partial curve]"
Cc1ncc(CCCN(C)C)cc1Nc1ncc2c(n1)-c1ccc(C(F)(F)F)cc1NC(=S)C2,Potency,[16],active: 13.5 µM
same,Potency,[18],"inconclusive: 26.7 µM [inhibitor, single point]"
